The list shows a part of the results. Values were computed here from the reads of four pooled replicates and scatter widely.
target: T1, Pho4 (S. cerevisiae) (UniProt P07270); assay: relative binding free energy (BET-seq); higher = weaker binding; settings: reference: library average
T1 sequence: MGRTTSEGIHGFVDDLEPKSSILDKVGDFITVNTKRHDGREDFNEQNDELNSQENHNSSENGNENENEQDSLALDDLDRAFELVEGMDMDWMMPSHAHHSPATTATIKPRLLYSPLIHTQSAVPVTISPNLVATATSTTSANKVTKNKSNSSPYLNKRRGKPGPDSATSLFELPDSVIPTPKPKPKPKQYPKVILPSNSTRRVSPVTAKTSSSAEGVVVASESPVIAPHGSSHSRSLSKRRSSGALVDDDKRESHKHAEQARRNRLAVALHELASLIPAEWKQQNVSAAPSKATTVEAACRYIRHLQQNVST

Sequence | relative binding free energy
ATGGGCACGTGGAAGC | -0.09 kcal/mol
ATGGGCACGTGCGCTT | -0.28 kcal/mol
GGTGTCACGTGTAAGA | 0.18 kcal/mol
ATTCGCACGTGGTAGT | -0.13 kcal/mol
TGGTTCACGTGGCGGT | 0.34 kcal/mol
TTTAGCACGTGCTGGT | -0.01 kcal/mol
GTTGGCACGTGCAGGC | -0.07 kcal/mol
GGTCTCACGTGATTTG | 0.57 kcal/mol
TTTATCACGTGAGGGG | 0.37 kcal/mol
TCGTTCACGTGGGTAG | 0.18 kcal/mol
ACCGGCACGTGGTAGG | -0.14 kcal/mol
TGGTCCACGTGAGGGC | 0.22 kcal/mol
TCGGACACGTGTGATG | 0.1 kcal/mol
TTGGACACGTGCAGGG | -0.03 kcal/mol
CGGGTCACGTGAGGCG | 0.28 kcal/mol
TAATTCACGTGTCGTA | 0.19 kcal/mol
GTGGACACGTGTTGGC | 0.04 kcal/mol
GTAGTCACGTGGGATC | 0.15 kcal/mol
GCTTTCACGTGAAGGT | 0.36 kcal/mol
TAGAGCACGTGTCGTT | -0.07 kcal/mol
GTAAGCACGTGGGATC | -0.01 kcal/mol
ATGTGCACGTGTGATC | 0.15 kcal/mol
GGTAGCACGTGATGGT | 0.17 kcal/mol

Sequence | relative binding free energy
GCGGTCACGTGCGGAG | 0.13 kcal/mol
GGTTGCACGTGAAAAT | 0.35 kcal/mol
AGAGGCACGTGCGGTT | 0.04 kcal/mol
TTCTTCACGTGTTACG | 0.21 kcal/mol
TATACCACGTGTTTTT | -0.08 kcal/mol
GCATTCACGTGCTGTG | 0.39 kcal/mol
TTTAGCACGTGATACG | -0.08 kcal/mol
GGAATCACGTGGTATT | -0.02 kcal/mol
CGGGACACGTGTATTG | 0.09 kcal/mol
ATCTGCACGTGTAGAG | 0.12 kcal/mol
TGGGCCACGTGTTTCT | 0.04 kcal/mol
CTAGTCACGTGATTTT | 0.23 kcal/mol
TTTGTCACGTGCAATG | 0.12 kcal/mol
GGGTGCACGTGGTGTC | -0.11 kcal/mol
TGGGTCACGTGCGCGA | -0.09 kcal/mol
GGTCTCACGTGCGGGA | 0.14 kcal/mol
TAGGGCACGTGTCTAA | -0.07 kcal/mol
TAAAGCACGTGAGTTG | 0.23 kcal/mol
AGGCGCACGTGATTGG | -0.09 kcal/mol
CGGGACACGTGGTATA | 0.04 kcal/mol
AGTTACACGTGGGGCA | 0.01 kcal/mol
GGAGGCACGTGGCCGG | -0.22 kcal/mol
ACAGTCACGTGGGTGT | -0.21 kcal/mol

Sequence | relative binding free energy
GTTAGCACGTGTGAGA | 0.07 kcal/mol
GGATCCACGTGTGGTA | 0.02 kcal/mol
GAGGTCACGTGGCGTT | 0.02 kcal/mol
GTAGGCACGTGTATTT | 0.04 kcal/mol
TTCGGCACGTGTGTTA | 0.01 kcal/mol
CTGTACACGTGGCGGT | 0.01 kcal/mol
GTATACACGTGATTGG | 0.22 kcal/mol
TAGTACACGTGAAATG | 0.4 kcal/mol
GGGGACACGTGGCAGG | -0.06 kcal/mol
AACGACACGTGGTTGG | 0.05 kcal/mol
TGCGTCACGTGTCAGG | 0.04 kcal/mol
AGTGACACGTGGTGTA | -0.18 kcal/mol
TTCAGCACGTGGAGGT | 0.06 kcal/mol
GAAGTCACGTGTTACG | 0.41 kcal/mol
GGGGCCACGTGAGGCA | 0.08 kcal/mol
TTAGACACGTGGTTGA | -0.07 kcal/mol
GTGATCACGTGATCTG | 0.29 kcal/mol
GGGTTCACGTGTAAGT | 0.21 kcal/mol
AGTGTCACGTGTTGCT | 0.02 kcal/mol
GTTGCCACGTGATGTA | 0.12 kcal/mol
ATTATCACGTGTTTTG | 0.12 kcal/mol
TAGATCACGTGCTGGA | 0.1 kcal/mol
GGTTTCACGTGAAAGT | 0.55 kcal/mol

Sequence | relative binding free energy
GACTTCACGTGGGTTG | 0.33 kcal/mol
CTGAGCACGTGATAGT | -0.01 kcal/mol
TTATTCACGTGCAGTG | 0.08 kcal/mol
TTAGACACGTGAAGTA | 0.29 kcal/mol
TTACGCACGTGTTGGT | -0.02 kcal/mol
TGAGGCACGTGTGTTG | -0.1 kcal/mol
GTTTGCACGTGGACAT | 0.04 kcal/mol
GGTAACACGTGGAGTA | -0.03 kcal/mol
ATGAGCACGTGAGTTG | 0.05 kcal/mol
CAAGGCACGTGGAGTG | -0.17 kcal/mol
TGGTACACGTGTAGTA | 0.07 kcal/mol
TGTATCACGTGGAAGA | 0.07 kcal/mol
TCGTCCACGTGGTTTT | 0.11 kcal/mol
TTGTGCACGTGCTGTA | -0.15 kcal/mol
TGTATCACGTGCGATT | 0.28 kcal/mol
TTGGGCACGTGAGTTT | 0.16 kcal/mol
ATCATCACGTGGTTAT | 0.1 kcal/mol
CTAAGCACGTGTAAGG | 0.08 kcal/mol
AAAGGCACGTGATTAG | 0.07 kcal/mol
TGTAGCACGTGCTCGG | -0.1 kcal/mol
CAATTCACGTGGTGTT | 0.15 kcal/mol
AAGGCCACGTGGGGTA | -0.24 kcal/mol
TGGTGCACGTGTTATT | 0.02 kcal/mol

Sequence | relative binding free energy
TGTGGCACGTGCTAGT | -0.15 kcal/mol
TCTAGCACGTGATGGG | 0.16 kcal/mol
TGTAGCACGTGGGCAT | -0.26 kcal/mol
TATGGCACGTGCTGAG | -0.06 kcal/mol
TTATGCACGTGATGTC | 0.17 kcal/mol
GAGAGCACGTGAGGGC | 0.16 kcal/mol
GCTGACACGTGTGGTA | 0.13 kcal/mol
TGCGACACGTGATAGT | 0.15 kcal/mol
CAGTTCACGTGAGAGT | 0.48 kcal/mol
TGGCGCACGTGTGTAA | -0.06 kcal/mol
AGGGTCACGTGATCTT | 0.19 kcal/mol
TTATTCACGTGGTGTA | 0.14 kcal/mol
ATTATCACGTGTAAAT | 0.26 kcal/mol
AGATTCACGTGGGACG | 0.13 kcal/mol
ACTGCCACGTGTTTGG | 0.06 kcal/mol
GATAACACGTGCGGGG | 0.02 kcal/mol
TAATTCACGTGTTGTT | 0.34 kcal/mol
CTTGGCACGTGAGCTG | 0.12 kcal/mol
AGCGCCACGTGGTGGG | -0.3 kcal/mol
GTGAGCACGTGTGATT | 0.04 kcal/mol
AATTTCACGTGGAAAT | 0.29 kcal/mol
CGGGGCACGTGTCGGG | -0.1 kcal/mol
GTAATCACGTGACGGT | 0.22 kcal/mol

— the BET-seq Pho4 binding data (Le et al. 2018)
